{"source": "FireProtDB (doi:10.1021/bi00152a018)", "details": "Gallus gallus, 35 °C, GdnHCl, CD, Sodium acetate 0.1 M, reversible: Unknown"}
{"substance": "Lysozyme C wild type (sequence left out)", "values": [{"measurement": "denaturant m value", "setting": "pH 4", "result": 2.59, "unit": "kcal/mol/M"}, {"measurement": "denaturant midpoint (higher = more stable)", "setting": "pH 4", "result": 3.26, "unit": "M"}, {"measurement": "unfolding free energy", "setting": "pH 4", "result": 8.44, "unit": "kcal/mol"}, {"measurement": "denaturant m value", "setting": "pH 4.5", "result": 2.59, "unit": "kcal/mol/M"}, {"measurement": "denaturant midpoint (higher = more stable)", "setting": "pH 4.5", "result": 3.69, "unit": "M"}, {"measurement": "unfolding free energy", "setting": "pH 4.5", "result": 9.56, "unit": "kcal/mol"}, {"measurement": "denaturant m value", "setting": "pH 5", "result": 2.59, "unit": "kcal/mol/M"}, {"measurement": "denaturant midpoint (higher = more stable)", "setting": "pH 5", "result": 3.63, "unit": "M"}, {"measurement": "unfolding free energy", "setting": "pH 5", "result": 9.4, "unit": "kcal/mol"}, {"measurement": "denaturant m value", "setting": "pH 5.5", "result": 2.59, "unit": "kcal/mol/M"}, {"measurement": "denaturant midpoint (higher = more stable)", "setting": "pH 5.5", "result": 3.61, "unit": "M"}, {"measurement": "unfolding free energy", "setting": "pH 5.5", "result": 9.35, "unit": "kcal/mol"}]}
